Test results: the supplement of paper PMC10369915
The list shows a part of the results. Cut-off read from the data, not from the text of the source: active = 3.2 or more and inactive = the rest. Only a few entries rise above the background.

The binders below were run against SHP2 C-SH2 domain E139D (assay: enrichment score (SH2-bound / input frequency) (ratio); bacterial display of known human phosphotyrosine sites (pTyr-Var adds point mutants) read by sequencing; higher = stronger binding; tyrosines were phosphorylated by kinases first). Settings: peptide library: Human pTyr.
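Note: displayed peptides selected on beads carrying the immobilized SH2 domain, with library peptides lacking any tyrosine serving as negative controls.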

Enrichment score, inactive:
EQFEAAAYIIHAAKD [TLR3_HUMAN_759_YA] 0.667
FLEEIPDYKLNHALC [TLR3_HUMAN_858] 1.06
VVGSLSQYQLMKHQS [TLR5_HUMAN_798] 0.865
ILEEEKIYAYPSNIT [TM192_HUMAN_213] 0.852
ILEEEKIYAAPSNIT [TM192_HUMAN_213_YA] 0.87
AVTTEAIYEEIDAHQ [TM1L1_HUMAN_460] 1.18
NSPGNAFYSNVLARP [TMIG2_HUMAN_192_YA] 0.653
KVSSTHAYLLPERPS [TNK2_HUMAN_860_YA] 1.18
SKAQQGLYQVPGPSP [BCAR1_HUMAN_128] 0.788
IRRRSSNYRAYATEP [TNNI3_HUMAN_26] 0.755
GPLDGSPYAQVQRPP [TNS2_HUMAN_483] 0.796
SHSFRGAYGLAMKVA [TNS3_HUMAN_1206] 1.49
KGCSNEPYFGSLTAL [TNS3_HUMAN_1256] 1.2
AAAERPKYTFDFSEE [TOP2B_HUMAN_1370] 1.82
DGLDKDEYTFSPGKS [TOP2B_HUMAN_1421] 0.742
AQPEQDEYDIPRHLL [BCAR1_HUMAN_234] 0.892
AIDSLLNYETVKYFN [ABCB7_HUMAN_340] 0.684
NSKFDTIYQILLKKK [TRI25_HUMAN_278] 2.66

These binders were tested against SHP2 C-SH2 domain wild-type in the same assay as above. Settings: peptide library: Human pTyr.

Enrichment score, inactive:
EQFEAAAYIIHAAKD [TLR3_HUMAN_759_YA] 0.61
FLEEIPDYKLNHALC [TLR3_HUMAN_858] 1.15
VVGSLSQYQLMKHQS [TLR5_HUMAN_798] 0.671
ILEEEKIYAYPSNIT [TM192_HUMAN_213] 0.771
ILEEEKIYAAPSNIT [TM192_HUMAN_213_YA] 0.744
AVTTEAIYEEIDAHQ [TM1L1_HUMAN_460] 1.01
NSPGNAFYSNVLARP [TMIG2_HUMAN_192_YA] 1.06
KVSSTHAYLLPERPS [TNK2_HUMAN_860_YA] 0.925
SKAQQGLYQVPGPSP [BCAR1_HUMAN_128] 0.56
IRRRSSNYRAYATEP [TNNI3_HUMAN_26] 0.641
GPLDGSPYAQVQRPP [TNS2_HUMAN_483] 1.62
SHSFRGAYGLAMKVA [TNS3_HUMAN_1206] 1.26
KGCSNEPYFGSLTAL [TNS3_HUMAN_1256] 1.07
AAAERPKYTFDFSEE [TOP2B_HUMAN_1370] 0.936
DGLDKDEYTFSPGKS [TOP2B_HUMAN_1421] 0.619
AQPEQDEYDIPRHLL [BCAR1_HUMAN_234] 0.746
AIDSLLNYETVKYFN [ABCB7_HUMAN_340] 0.883
NSKFDTIYQILLKKK [TRI25_HUMAN_278] 1.73

The binders below were run against SHP2 N-SH2 domain L43F in the same assay as above. Settings: peptide library: Human pTyr.

Enrichment score, inactive:
EQFEAAAYIIHAAKD [TLR3_HUMAN_759_YA] 0.84
FLEEIPDYKLNHALC [TLR3_HUMAN_858] 0.847
VVGSLSQYQLMKHQS [TLR5_HUMAN_798] 0.901
ILEEEKIYAYPSNIT [TM192_HUMAN_213] 0.864
ILEEEKIYAAPSNIT [TM192_HUMAN_213_YA] 0.91
AVTTEAIYEEIDAHQ [TM1L1_HUMAN_460] 1.15
NSPGNAFYSNVLARP [TMIG2_HUMAN_192_YA] 0.615
KVSSTHAYLLPERPS [TNK2_HUMAN_860_YA] 0.791
SKAQQGLYQVPGPSP [BCAR1_HUMAN_128] 0.65
IRRRSSNYRAYATEP [TNNI3_HUMAN_26] 0.588
GPLDGSPYAQVQRPP [TNS2_HUMAN_483] 0.444
SHSFRGAYGLAMKVA [TNS3_HUMAN_1206] 1.7
KGCSNEPYFGSLTAL [TNS3_HUMAN_1256] 1.03
AAAERPKYTFDFSEE [TOP2B_HUMAN_1370] 0.918
DGLDKDEYTFSPGKS [TOP2B_HUMAN_1421] 1.06
AQPEQDEYDIPRHLL [BCAR1_HUMAN_234] 0.881
AIDSLLNYETVKYFN [ABCB7_HUMAN_340] 0.857
NSKFDTIYQILLKKK [TRI25_HUMAN_278] 1.91

These binders were tested against SHP2 N-SH2 domain T42A in the same assay as above. Settings: peptide library: Human pTyr.

Enrichment score, inactive:
EQFEAAAYIIHAAKD [TLR3_HUMAN_759_YA] 0.557
FLEEIPDYKLNHALC [TLR3_HUMAN_858] 1.05
VVGSLSQYQLMKHQS [TLR5_HUMAN_798] 0.722
ILEEEKIYAYPSNIT [TM192_HUMAN_213] 0.502
ILEEEKIYAAPSNIT [TM192_HUMAN_213_YA] 0.538
AVTTEAIYEEIDAHQ [TM1L1_HUMAN_460] 0.98
NSPGNAFYSNVLARP [TMIG2_HUMAN_192_YA] 0.62
KVSSTHAYLLPERPS [TNK2_HUMAN_860_YA] 0.903
SKAQQGLYQVPGPSP [BCAR1_HUMAN_128] 0.617
IRRRSSNYRAYATEP [TNNI3_HUMAN_26] 0.85
GPLDGSPYAQVQRPP [TNS2_HUMAN_483] 0.458
SHSFRGAYGLAMKVA [TNS3_HUMAN_1206] 1.38
KGCSNEPYFGSLTAL [TNS3_HUMAN_1256] 1.17
AAAERPKYTFDFSEE [TOP2B_HUMAN_1370] 1.06
DGLDKDEYTFSPGKS [TOP2B_HUMAN_1421] 0.839
AQPEQDEYDIPRHLL [BCAR1_HUMAN_234] 0.633
AIDSLLNYETVKYFN [ABCB7_HUMAN_340] 0.776
NSKFDTIYQILLKKK [TRI25_HUMAN_278] 2.05

The binders below were run against SHP2 N-SH2 domain T52S in the same assay as above. Settings: peptide library: Human pTyr.

Enrichment score, inactive:
EQFEAAAYIIHAAKD [TLR3_HUMAN_759_YA] 0.827
FLEEIPDYKLNHALC [TLR3_HUMAN_858] 1.15
VVGSLSQYQLMKHQS [TLR5_HUMAN_798] 0.687
ILEEEKIYAYPSNIT [TM192_HUMAN_213] 0.815
ILEEEKIYAAPSNIT [TM192_HUMAN_213_YA] 0.693
AVTTEAIYEEIDAHQ [TM1L1_HUMAN_460] 0.949
NSPGNAFYSNVLARP [TMIG2_HUMAN_192_YA] 0.562
KVSSTHAYLLPERPS [TNK2_HUMAN_860_YA] 0.988
SKAQQGLYQVPGPSP [BCAR1_HUMAN_128] 0.865
IRRRSSNYRAYATEP [TNNI3_HUMAN_26] 0.895
GPLDGSPYAQVQRPP [TNS2_HUMAN_483] 0.505
SHSFRGAYGLAMKVA [TNS3_HUMAN_1206] 1.37
KGCSNEPYFGSLTAL [TNS3_HUMAN_1256] 1.34
AAAERPKYTFDFSEE [TOP2B_HUMAN_1370] 0.949
DGLDKDEYTFSPGKS [TOP2B_HUMAN_1421] 1.49
AQPEQDEYDIPRHLL [BCAR1_HUMAN_234] 0.726
AIDSLLNYETVKYFN [ABCB7_HUMAN_340] 0.837
NSKFDTIYQILLKKK [TRI25_HUMAN_278] 1.9

The binders below were run against SHP2 N-SH2 domain wild-type in the same assay as above. Settings: peptide library: Human pTyr.

Enrichment score, inactive:
EQFEAAAYIIHAAKD [TLR3_HUMAN_759_YA] 0.859
FLEEIPDYKLNHALC [TLR3_HUMAN_858] 0.738
VVGSLSQYQLMKHQS [TLR5_HUMAN_798] 0.804
ILEEEKIYAYPSNIT [TM192_HUMAN_213] 0.99
ILEEEKIYAAPSNIT [TM192_HUMAN_213_YA] 0.922
AVTTEAIYEEIDAHQ [TM1L1_HUMAN_460] 1.04
NSPGNAFYSNVLARP [TMIG2_HUMAN_192_YA] 0.618
KVSSTHAYLLPERPS [TNK2_HUMAN_860_YA] 1.01
SKAQQGLYQVPGPSP [BCAR1_HUMAN_128] 0.687
IRRRSSNYRAYATEP [TNNI3_HUMAN_26] 0.731
GPLDGSPYAQVQRPP [TNS2_HUMAN_483] 0.548
SHSFRGAYGLAMKVA [TNS3_HUMAN_1206] 1.88
KGCSNEPYFGSLTAL [TNS3_HUMAN_1256] 1.55
AAAERPKYTFDFSEE [TOP2B_HUMAN_1370] 1.19
DGLDKDEYTFSPGKS [TOP2B_HUMAN_1421] 0.601
AQPEQDEYDIPRHLL [BCAR1_HUMAN_234] 0.749
AIDSLLNYETVKYFN [ABCB7_HUMAN_340] 0.774
NSKFDTIYQILLKKK [TRI25_HUMAN_278] 2.65
